Data taken from article PMC11995724, “Antibiotic target discovery by integrated phenotypic and activity-based profiling of electrophilic fragments” (Cell chemical biology, 2025).
The whole screen tested about 3,200 compounds, of which about 110 (3.4%) showed an effect of 50% or more. This is one part of the list.

test system: T1, V. cholerae SAD30; set-up: species or system S. aureus MSSA476 (TSB) or V. cholerae SAD30 (LB); 384-well bacterial growth screen at 25 uM, OD600 relative to DMSO control; conditions: relative growth, OD600, LB; 25 µM; inhibitor
T1 construct: SAD30

Structure (SMILES) | % of control remaining
N#CC(=Cc1cccc2c1OCO2)C(=O)Nc1cccc2ccccc12 [8-K12, 3-(1,3-dioxaindan-4-yl)-2-cyano-N-(naphthalen-1-yl)prop-2-enamide] | 70.3603%
O=C(CCl)c1ccc2c(c1)-c1ccccc1C2 [10-H17, 2-chloro-1-(9H-fluoren-3-yl)ethan-1-one] | 91.4865%
CC(Cl)C(=O)N1CCc2ccccc21 (stereo not drawn) [5-H04, 2-chloro-1-(2,3-dihydro-1H-indol-1-yl)propan-1-one] | 105.075%
C=CC(=O)N1CCCc2c(OCC(N)=O)cccc21 [3-D22, 2-{[1-(prop-2-enoyl)-1,2,3,4-tetrahydroquinolin-5-yl]oxy}acetamide] | 115.909%
O=C(CCl)NCc1ccc(OC(F)(F)F)cc1 [6-G08, 2-chloro-N-{[4-(trifluoromethoxy)phenyl]methyl}acetamide] | 91.3072%
C=CC(=O)NC(C)Cc1cccn1C (stereo not drawn) [3-M22, N-[1-(1-methyl-1H-pyrrol-2-yl)propan-2-yl]prop-2-enamide] | 102.147%
N#CC(=Cc1ccc(Cl)cc1)C(=O)Nc1ccc2c(c1)OCCO2 [9-E22, 3-(4-chlorophenyl)-2-cyano-N-(2,3-dihydro-1,4-benzodioxin-6-yl)prop-2-enamide] | 93.0659%
C=CC(=O)N1CCCn2ncc(C3CC3)c21 [3-M15, 1-{3-cyclopropyl-4H,5H,6H,7H-pyrazolo[1,5-a]pyrimidin-4-yl}prop-2-en-1-one] | 98.6179%
CCN(Cc1ccc(C#N)cc1F)C(=O)CCl [5-H08, 2-chloro-N-[(4-cyano-2-fluorophenyl)methyl]-N-ethylacetamide] | 90.953%
Cc1ccc(Cl)c(NC(=O)CCl)c1Cl [4-D10, 2-chloro-N-(2,6-dichloro-3-methylphenyl)acetamide] | 87.2978%
CC(NC(=O)C(C#N)=Cc1ccco1)c1cccnc1 (stereo not drawn) [9-K03, 2-cyano-3-(furan-2-yl)-N-[1-(pyridin-3-yl)ethyl]prop-2-enamide] | 97.1448%
CC(Cl)C(=O)NC1CCC(C)(C)c2ccccc21 (stereo not drawn) [6-H21, 2-chloro-N-(4,4-dimethyl-1,2,3,4-tetrahydronaphthalen-1-yl)propanamide] | 85.2403%
O=C(c1ccccc1)c1cc(Cl)ccc1N1C(=O)C=CC1=O [10-M16, 1-(2-benzoyl-4-chlorophenyl)-2,5-dihydro-1H-pyrrole-2,5-dione] | 57.9778%
C=CC(=O)N1CCC(C(=O)Oc2ccc(NC(C)=O)cc2)CC1 [3-M16, 4-acetamidophenyl 1-(prop-2-enoyl)piperidine-4-carboxylate] | 96.1478%
C=CC(=O)N1CCN(Cc2cc(=O)n3ccsc3n2)CC1 [3-F22, 7-{[4-(prop-2-enoyl)piperazin-1-yl]methyl}-5H-[1,3]thiazolo[3,2-a]pyrimidin-5-one] | 108.675%
COc1ccc([N+](=O)[O-])cc1N1C(=O)C=CC1=O [10-P13, 1-(2-methoxy-5-nitrophenyl)-2,5-dihydro-1H-pyrrole-2,5-dione] | 32.7294%
O=C(CCl)NCCc1cccc(Cl)c1 [5-O05, 2-chloro-N-[2-(3-chlorophenyl)ethyl]acetamide] | 115.33%
C=CC(=O)NCCN(C)S(=O)(=O)c1cccs1 [2-A09, N-[2-(N-methylthiophene-2-sulfonamido)ethyl]prop-2-enamide] | 91.8942%
CCN(CC)C(=O)c1cccc(NC(=O)CCl)c1 [5-I03, 3-(2-chloroacetamido)-N,N-diethylbenzamide] | 111.296%
C=CC(=O)NCc1ccc(N2CCCC(C(N)=O)C2)cc1 (stereo not drawn) [1-P19, 1-{4-[(prop-2-enamido)methyl]phenyl}piperidine-3-carboxamide] | 98.2063%
COc1ccc(CCN2C(=O)C=CC2=O)cc1 [10-A05, 1-[2-(4-methoxyphenyl)ethyl]-2,5-dihydro-1H-pyrrole-2,5-dione] | 35.8465%
O=C(CCl)NC(c1ccc(F)c(Cl)c1)C(F)(F)F (stereo not drawn) [7-D16, 2-chloro-N-[1-(3-chloro-4-fluorophenyl)-2,2,2-trifluoroethyl]acetamide] | 75.2024%
O=C(Nc1ccc(F)cc1)N1CCSSCC1 [10-D21, N-(4-fluorophenyl)-1,2,5-dithiazepane-5-carboxamide] | 104.578%
CCSc1nnc(NC(=O)CCl)s1 [5-N22, 2-chloro-N-[5-(ethylsulfanyl)-1,3,4-thiadiazol-2-yl]acetamide] | 107.429%
Cl.O=C(CCl)N1CCN(CCOc2ccccc2)CC1 [4-H14, 2-chloro-1-[4-(2-phenoxyethyl)piperazin-1-yl]ethan-1-one hydrochloride] | 99.3746%
Cc1nc2cc(NC(=O)C(C#N)=Cc3ccco3)ccc2n1C [9-B18, 2-cyano-N-(1,2-dimethyl-1H-1,3-benzodiazol-5-yl)-3-(furan-2-yl)prop-2-enamide] | 87.7634%
COc1cc(Cl)c(C)cc1NC(=O)C(C#N)=CC=Cc1ccccc1 [8-A21, N-(4-chloro-2-methoxy-5-methylphenyl)-2-cyano-5-phenylpenta-2,4-dienamide] | 93.0659%
C=CC(=O)NCc1ccnc(N2CCOCC2)c1 [1-C09, N-{[2-(morpholin-4-yl)pyridin-4-yl]methyl}prop-2-enamide] | 91.1809%
CC(Cl)C(=O)Nc1cc(C(C)(C)C)nn1-c1ccccc1 (stereo not drawn) [4-H11, N-(3-tert-butyl-1-phenyl-1H-pyrazol-5-yl)-2-chloropropanamide] | 95.579%
CC(Cl)C(=O)Nc1ccc([N+](=O)[O-])cc1 (stereo not drawn) [4-I18, 2-chloro-N-(4-nitrophenyl)propanamide] | 95.4065%
